# “And” between values parts separate entries of the source, which are not always exact repeats. Equal entries are not always repeated. About 250 (0.25%) of roughly 100,000 compounds were called active. This list was built around the results that the source calls inconclusive (neither active nor inactive); the mix of calls is not that of the screen. The call rests on the fitted dose curve; in most records, active means well fitted inhibition curve with a large enough effect; inconclusive means small, poorly fitted or top-dose-only effect; inactive means flat fitted curve, though single readings scatter. Potencies of inconclusive entries are doubtful fits and often do not repeat.
# Target: Alanine aminotransferase 2 (Homo sapiens) (UniProt Q8TD30)
# Sequence of UniProt Q8TD30 (Q8TD30 whole entry, looked up): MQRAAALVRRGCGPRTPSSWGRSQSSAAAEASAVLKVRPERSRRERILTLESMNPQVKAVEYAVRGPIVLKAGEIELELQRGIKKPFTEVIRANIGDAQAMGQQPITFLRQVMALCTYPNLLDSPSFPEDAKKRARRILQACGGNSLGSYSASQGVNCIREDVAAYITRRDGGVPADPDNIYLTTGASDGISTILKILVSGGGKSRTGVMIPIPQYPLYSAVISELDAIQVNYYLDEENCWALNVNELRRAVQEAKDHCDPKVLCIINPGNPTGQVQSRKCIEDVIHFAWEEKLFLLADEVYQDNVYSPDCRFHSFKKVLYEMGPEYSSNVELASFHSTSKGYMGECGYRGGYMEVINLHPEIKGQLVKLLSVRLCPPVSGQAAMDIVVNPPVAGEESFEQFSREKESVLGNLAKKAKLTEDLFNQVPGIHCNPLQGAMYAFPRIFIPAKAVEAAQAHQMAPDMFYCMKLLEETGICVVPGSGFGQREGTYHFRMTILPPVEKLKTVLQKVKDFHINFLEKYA
# Test: Primary qHTS assay for inhibitors of Glutamate pyruvate transaminase 2 (GPT2); further: nearly all actives have a fitted effect of over 60% in size
# Details: Recombinant GPT2, coupled pyruvate oxidase/HRP Amplex Red fluorescence; activity change, negative = inhibition: at 57.7 µM (top of the series) unless noted; series mostly up to 57.7 µM
# How it was run: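 Inhibition is scored from Amplex Red fluorescence generated when pyruvate oxidase and HRP act on pyruvate released by GPT2. Reactions contain 10ng/uL enzyme, 250uM a-KG and 2mM L-alanine and run 30 min at room temperature.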
# On the % scale 0 is the no-effect control and ±100 the full control effect; potency means the concentration at half of the fitted maximal effect; tags describe the fitted curve by direction and shape.
SMILES,Potency,"activity change, negative = inhibition",outcome
COc1cc(N2CCC(N3CCN(C)CC3)CC2)ccc1Nc1ncnc(Nc2ccccc2S(=O)(=O)C(C)C)n1,"active: 4.32 µM and inconclusive: 3.55 µM [inhibitor, full curve, poor fit]",–,–
Cc1ccc(-c2ccc(CN)cc2)cc1Cl,–,inactive: -11% [at 88.5 µM],–
COCCN1C(=O)c2cccn2CC1CNC(=O)Cc1c(C)noc1C (centres undefined),–,–,inactive
CCn1cc(CN2C[C@@H](COc3ccccc3)[C@H](C(N)=O)C2)cn1,"inconclusive: 39.8 µM [inhibitor, single point]",–,–
Cc1sc2ccn(C)c(=O)c2c1C(=O)N1CCN(c2ccc(Cl)cc2)CC1,–,–,inactive
Cc1cc(-c2nc3ccncc3[nH]2)c(C)[nH]1,inactive,–,–
CC1=C[C@@H](CNC(=O)CC(C)(C)CC(=O)O)[C@H](C(C)C)C[C@H]1Cc1nc2c(C)cccc2[nH]1,"inconclusive: 0.794 µM [inhibitor, full curve, poor fit]",–,–
O=C1c2ccccc2-[n+]2ccc3c([nH]c4ccccc43)c21,active: 0.273 µM,–,–
COc1ccc(CNC(=O)c2ccc3c(c2)N(C(=O)c2ccc(F)cc2)CC3)c(OC)c1,–,inactive: -1.89%,–
CCOC(=O)c1c(CSc2ccccc2)n(C)c2cc(Br)c(O)c(CN(C)C)c12,"inconclusive: 30.6 µM [inhibitor, partial curve]",–,–
Cc1cc(N2CCC(N3CCCC(C(=O)NCCc4ccccc4)C3)CC2)ncn1 (centres undefined),"inconclusive: 39.8 µM [inhibitor, single point]",–,–
CC(NC(=O)CNC(=O)c1cccc(-c2ccc(C(F)(F)F)cc2)c1)c1ccc(F)cc1 (centres undefined),–,–,inactive
Cc1ccc(CN(C)Cc2ccccc2C(F)(F)F)cc1,"inconclusive: 56.2 µM [inhibitor, partial curve, poor fit]",–,–
CC(=O)N1CC2(CCN(Cc3c[nH]c4ccccc34)CC2)Cc2ccccc21,–,inactive: -32.2%,–
COc1cc(CNC(=O)c2ccc3c(c2)N(C)C2CCCN2C3=O)cc(OC)c1 (centres undefined),–,–,inactive
CC(=O)N1CC(C(=O)NC(C)c2ccccc2)CC(c2cccc(C)c2)C1 (centres undefined),–,–,inactive
COCc1cn(C[C@H]2C[C@@H](NS(=O)(=O)CC(C)C)[C@H](O)[C@@H]2O)nn1,"inconclusive: 25.1 µM [inhibitor, partial curve, poor fit]",–,–
CCN1c2cc(C(=O)Nc3cccc(OC)c3)ccc2C(=O)N2CCCCC21 (centres undefined),–,–,inactive
C=CCCC(CN1CCCC1)Oc1cc(N2CCOCC2)ncn1 (centres undefined),"inconclusive: 6.31 µM [inhibitor, single point]",–,–
C=CCN1C[C@@H]2C[C@@H](C(N)=O)N(C(=O)c3ccc(Cl)cc3)c3cccc(c32)C1=O,"inconclusive: 17.8 µM [inhibitor, single point]",–,–
COC(=O)N(C)C1CCCc2ccccc21 (centres undefined),"inconclusive: 7.94 µM [inhibitor, full curve, poor fit]",–,–
O=C(C1CC1)N1CCC(N2C(=O)C3(CCCCC3)C2c2ccccc2)CC1 (centres undefined),"inconclusive: 39.8 µM [inhibitor, single point]",–,–

SMILES,Potency,"activity change, negative = inhibition",outcome
COc1cccc2c1OCC(C(=O)N1CCC(c3noc(C)n3)CC1)C2 (centres undefined),"inconclusive: 0.708 µM [inhibitor, full curve, poor fit]",–,–
C=C1CCC2C(C)(C(=O)O)CCCC2(C)C1CCC(C)CC(=O)O (centres undefined),"inconclusive: 3.55 µM [inhibitor, single point]",–,–
Cc1noc(C)c1CN1CCc2c(n(Cc3cccnc3)n(CCc3ccccc3)c2=O)C1,–,–,inactive
O=C(Cn1ccn2nc(-c3ccccc3)c(CO)c2c1=O)NCCCc1ccccc1,"inconclusive: 5.62 µM [inhibitor, full curve]",–,–
O=C(C1CCCN(c2nc3ncccc3o2)C1)N1CCCC1 (centres undefined),–,–,inactive [at 88.5 µM]
Cc1c(CC(=O)NC(C)(C)CO)c2c(n1Cc1ccccc1F)CCCC2=O,"inconclusive: 39.8 µM [inhibitor, partial curve, poor fit]",–,–
Cc1nc(-c2ccc(OCC(C)C)c(C#N)c2)sc1C(=O)O,inactive,–,–
Cc1cc(C(=O)NC(C)c2cnc(N3CCCCCCC3)nc2C)n[nH]1 (centres undefined),–,–,inactive
Cc1cccn2c(CNC3CCC4(CCNCC4)CC3)cnc12,"inconclusive: 6.31 µM [inhibitor, single point]",–,–
COc1ccc(F)cc1-c1cccc(C(=O)NCCN[S+](=O)([O-])c2ccccc2)c1,–,inactive: 2.37%,–
COc1ccc(Nc2ccnc(N3CCCC3C(=O)NCc3ccc(C(F)(F)F)cc3)n2)cc1 (centres undefined),"inconclusive: 39.8 µM [inhibitor, partial curve, poor fit]",–,–
O=C(NC1CCCN(c2cc(-c3ccc(F)cc3)[nH]n2)C1)c1cccnc1 (centres undefined),"inconclusive: 25.1 µM [inhibitor, single point]",–,–
COc1ccc(OC)c(NC(=O)Cn2c(-c3cccc(Cl)c3)nc(C)c(CCO)c2=O)c1,"inconclusive: 0.794 µM [inhibitor, full curve, poor fit]",–,–
CCOCCCNC(=O)N1CCCCCC1c1nc(-c2ccncc2)no1 (centres undefined),–,–,inactive
CCC(=O)C(=O)N1CCC2(CCCN(Cc3ccc(C(C)C)cc3)C2=O)C1 (centres undefined),"inconclusive: 8.91 µM [inhibitor, single point]",–,–
COCCCNC(=O)N1CCCC(c2nc(-c3cccnc3)no2)CCNC(=O)CC1 (centres undefined),"inconclusive: 4.47 µM [inhibitor, full curve, poor fit]",–,–
OCc1n[nH]c2c1CN(Cc1cccc(OCC(O)CN3CCOCC3)c1)CC2 (centres undefined),"inconclusive: 44.7 µM [inhibitor, partial curve, poor fit]",–,–
CC(C)C[C@@H]1N[C@H](C(=O)N2CCOCC2)Cc2cn(CC3CC3)c3cccc1c23,"inconclusive: 11.2 µM [inhibitor, single point]",–,–
COc1ccc(CNC2(Cc3cc(COc4ccccc4)on3)COC2)cc1,"inconclusive: 2.51 µM [inhibitor, full curve, poor fit]",–,–
CC(C)Nc1ncnc2c1CN(C1CCCNC1)C(=O)CN2C (centres undefined),"inconclusive: 44.7 µM [inhibitor, single point]",–,–
Cc1noc(-c2cn(C3CCCN(C(=O)c4ccc(F)cc4)C3)nn2)n1 (centres undefined),–,inactive: 4.23%,–
CC(C)NC(=O)N[C@H]1C[C@H]2C(=O)NC[C@@H](CCC(=O)N3CCN(C)CC3)N2C1,"inconclusive: 1.12 µM [inhibitor, full curve, poor fit]",–,–

# From PubChem BioAssay AID1671188 (National Center for Advancing Translational Sciences (NCATS), 2021)
